The labels stand for the following.
B1: GPR68, Q15743 (parent)
chain: MGNITADNSSMSCTIDHTIHQTLAPVVYVTVLVVGFPANCLSLYFGYLQIKARNELGVYLCNLTVADLFYICSLPFWLQYVLQHDNWSHGDLSCQVCGILLYENIYISVGFLCCISVDRYLAVAHPFRFHQFRTLKAAVGVSVVIWAKELLTSIYFLMHEEVIEDENQHRVCFEHYPIQAWQRAINYYRFLVGFLFPICLLLASYQGILRAVRRSHGTQKSRKDQIQRLVLSTVVIFLACFLPYHVLLLVRSVWEASCDFAKGVFNAYHFSLLLTSFNCVADPVLYCFVSETTHRDLARLRGACLAFLTCSRTGRAREAYPLGAPEASGKSGAQGEEPELLTKLHPAFQTPNSPGSGGFPTGRLA

In data set [1] the parent is B1. In words: cAMP reporter score (Enrich2 score, wild type = 0); higher = more signal; HEK293T, FACS bins.
The variants in data set [2] derive from B1. In words: surface expression score (Enrich2 score, wild type = 0); higher = more signal; HEK293T, FACS bins.

The least precise scores are not listed. Not listed are two conditions whose scores span a narrow range. Read del as a deletion of the residues named and ins as an insertion between two positions. For part of these data: The data file names ogerin without a concentration.

Results on 31 variants are retold here after the GPR68 mutational scans of Howard et al. (2025).

For the variant H159K, the cAMP reporter score was 0.545 in data set [1] (pH 5.5); 0.37 in data set [1] (pH 6); -0.173 in data set [1] (pH 6, modulator: ogerin); -0.678 in data set [1] (pH 6.5, modulator: ogerin). In addition, in data set [2], the surface expression score worked out at 0.398.
Consider H159T, for which the cAMP reporter score in data set [1] (pH 5.5) is 0.335; in data set [1] (pH 6) it was -0.91; in data set [1] (pH 6, modulator: ogerin) it was -0.776; in data set [1] (pH 6.5, modulator: ogerin), -1.81. In data set [2], the surface expression score is -0.111.
The corresponding values for H159L are -0.363, 0.033, -0.934, -1.33 and -1.02.
With H159G, the cAMP reporter score in data set [1] (pH 5.5) is -0.632; in data set [1] (pH 6), -1.05; in data set [1] (pH 6.5, modulator: ogerin), -2.19. In addition, in data set [2], the surface expression score came to 0.335.
Consider E164_E166del, for which the cAMP reporter score in data set [1] (pH 5.5) was -0.903; in data set [1] (pH 6) it was -0.297; in data set [1] (pH 6, modulator: ogerin), -1.26; in data set [1] (pH 6.5, modulator: ogerin) it was -0.795. For the same variant, the surface expression score in data set [2] worked out at 0.725.
As to R170_V171insGSG, the cAMP reporter score in data set [1] (pH 5.5) is -0.828; in data set [1] (pH 6, modulator: ogerin) it was -0.843; in data set [1] (pH 6.5, modulator: ogerin), -1.11. The surface expression score in data set [2] came out at 0.929.
On to E160del, for which the cAMP reporter score was 0.336 in data set [1] (pH 5.5); -0.648 in data set [1] (pH 6); 1 in data set [1] (pH 6, modulator: ogerin); -0.022 in data set [1] (pH 6.5, modulator: ogerin). Also, the surface expression score in data set [2] was 1.2.
The corresponding values for R170_V171insGS are -0.784, -1.25, -1.36, -1.77 and 0.524.
In the case of Q168I, the cAMP reporter score in data set [1] (pH 5.5) was -0.996; in data set [1] (pH 6), -0.803; in data set [1] (pH 6, modulator: ogerin) it was -0.863; in data set [1] (pH 6.5, modulator: ogerin), -1.47. In addition, the surface expression score in data set [2] is 0.074.
For the variant Q168K, the cAMP reporter score in data set [1] (pH 5.5) was -0.73; in data set [1] (pH 6), -0.956; in data set [1] (pH 6, modulator: ogerin), -0.836; in data set [1] (pH 6.5, modulator: ogerin), -0.544. The surface expression score in data set [2] was -0.692.
On the same counts, the results for Q168M are 0.592, -0.331, 0.522, 0.728 and 0.995.
Consider Q168G, for which the cAMP reporter score in data set [1] (pH 5.5) is -0.34; in data set [1] (pH 6, modulator: ogerin), 0.686; in data set [1] (pH 6.5, modulator: ogerin) it was 2.57. The surface expression score in data set [2] was -0.439.
Regarding Q168H, the cAMP reporter score in data set [1] (pH 5.5) is -1.02; in data set [1] (pH 6), -0.46; in data set [1] (pH 6, modulator: ogerin), -0.92; in data set [1] (pH 6.5, modulator: ogerin) it was -0.433. Besides, the surface expression score in data set [2] is -1.02.
On to Q168F, for which the cAMP reporter score in data set [1] (pH 5.5) came to 1.64; in data set [1] (pH 6, modulator: ogerin), 0.867; in data set [1] (pH 6.5, modulator: ogerin), 0.614. For the same variant, the surface expression score in data set [2] came to 0.537.
Regarding Q168W, the cAMP reporter score was -0.155 in data set [1] (pH 5.5); -0.398 in data set [1] (pH 6); -0.95 in data set [1] (pH 6, modulator: ogerin); -0.144 in data set [1] (pH 6.5, modulator: ogerin). Besides, the surface expression score in data set [2] worked out at 0.118.
For the variant Q168T, the cAMP reporter score in data set [1] (pH 5.5) is -0.273; in data set [1] (pH 6) it was -0.318; in data set [1] (pH 6, modulator: ogerin), -0.771; in data set [1] (pH 6.5, modulator: ogerin) it was -0.544. In addition, in data set [2], the surface expression score was 0.515.
As for Q168A, the cAMP reporter score is 0.343 in data set [1] (pH 5.5); -0.703 in data set [1] (pH 6); -0.886 in data set [1] (pH 6.5, modulator: ogerin).
Regarding Q168L, the cAMP reporter score in data set [1] (pH 5.5) was 0.52; in data set [1] (pH 6), -0.941; in data set [1] (pH 6, modulator: ogerin) it was 0.905; in data set [1] (pH 6.5, modulator: ogerin), -0.308. Moreover, in data set [2], the surface expression score came to 0.329.
Q168C: the cAMP reporter score in data set [1] (pH 5.5) is 0.437; in data set [1] (pH 6) it was 0.415; in data set [1] (pH 6, modulator: ogerin), 0.091; in data set [1] (pH 6.5, modulator: ogerin), 0.489. Further, in data set [2], the surface expression score is -1.06.
Q168E: the cAMP reporter score in data set [1] (pH 5.5) was -0.031; in data set [1] (pH 6) it was -1.35; in data set [1] (pH 6, modulator: ogerin) it was 0.111; in data set [1] (pH 6.5, modulator: ogerin) it was -1.08. Besides, the surface expression score in data set [2] is -0.127.
The corresponding values for Q168R are -0.019, 0.321, 0.161, 0.401 and 0.442.
For the variant Q168N, the cAMP reporter score in data set [1] (pH 5.5) was 1.09; in data set [1] (pH 6, modulator: ogerin), 0.541; in data set [1] (pH 6.5, modulator: ogerin), 0.494. In data set [2], the surface expression score worked out at 0.624.
Regarding Q168D, the cAMP reporter score in data set [1] (pH 5.5) is -0.811; in data set [1] (pH 6), -0.739; in data set [1] (pH 6, modulator: ogerin) it was -0.835; in data set [1] (pH 6.5, modulator: ogerin), -1.26. In addition, the surface expression score in data set [2] came to 0.01.
In the case of Q168S, the cAMP reporter score in data set [1] (pH 5.5) is 0.446; in data set [1] (pH 6), 0.534; in data set [1] (pH 6, modulator: ogerin) it was 0.813. In addition, in data set [2], the surface expression score was determined as 0.682.
Q168V: the cAMP reporter score in data set [1] (pH 5.5) is -1.21; in data set [1] (pH 6), -0.691; in data set [1] (pH 6, modulator: ogerin), -0.933; in data set [1] (pH 6.5, modulator: ogerin), -0.767. Further, the surface expression score in data set [2] worked out at 1.45.
For the variant Q168_H169insGSG, the cAMP reporter score is -1.05 in data set [1] (pH 5.5); -0.85 in data set [1] (pH 6); -1.42 in data set [1] (pH 6, modulator: ogerin); -0.91 in data set [1] (pH 6.5, modulator: ogerin). Besides, the surface expression score in data set [2] was 0.156.
The corresponding values for E161_V162insGS are 0.282, -0.1, -0.155, -0.724 and 0.075.
The corresponding values for E166_N167insGS are 0.057, -0.099, -1.04, -1.52 and 0.98.
On the same counts, the results for E160_V162del are -1.08, -1.23, -1.63, -0.99 and 1.64.
Turning to C172_F173insGSG, the cAMP reporter score in data set [1] (pH 5.5) was -1.55; in data set [1] (pH 6), -1.31; in data set [1] (pH 6, modulator: ogerin), -1.86; in data set [1] (pH 6.5, modulator: ogerin) it was -1.04. In addition, in data set [2], the surface expression score is -0.18.
The corresponding values for I163_D165del are -1.46, -0.761, -1.69, -1.03 and 0.699.
